Assay results: PubChem BioAssay AID624170 (National Center for Advancing Translational Sciences (NCATS), 2012)
The campaign covered roughly 410,000 compounds. About 850 (0.21%) were called active. Inconclusive results, whose numbers are uncertain, are shown with a selection of clear calls. Calls follow the shape of the dose curve; as a rule, active = well fitted inhibition curve with a large enough effect; inconclusive = small, poorly fitted or top-dose-only effect, or another doubt; inactive = no such curve, though single readings can be large or run the other way. Potencies of inconclusive entries are left out as doubtful fits.

Target: Glutaminase kidney isoform, mitochondrial (Homo sapiens) (UniProt O94925)
Test: qHTS for Inhibitors of Glutaminase (GLS)
Details: GLS enzymatic activity, qHTS titration; series mostly up to 45.5 µM
Summary of the method: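 Assay buffer: 45 mM KH2PO4 pH 8.2, 0.02% Tween-20. hKGA acts on L-glutamine (1 mM solution added); product glutamate is reported by an oxidase/peroxidase Amplex Red coupling, with fluorescence taken at baseline and 30 min.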
Potency is read from the fitted curve at half-maximal effect; tags tell the direction and shape of the fitted curve.

Chain of UniProt O94925 (O94925 whole entry, looked up, canonical isoform): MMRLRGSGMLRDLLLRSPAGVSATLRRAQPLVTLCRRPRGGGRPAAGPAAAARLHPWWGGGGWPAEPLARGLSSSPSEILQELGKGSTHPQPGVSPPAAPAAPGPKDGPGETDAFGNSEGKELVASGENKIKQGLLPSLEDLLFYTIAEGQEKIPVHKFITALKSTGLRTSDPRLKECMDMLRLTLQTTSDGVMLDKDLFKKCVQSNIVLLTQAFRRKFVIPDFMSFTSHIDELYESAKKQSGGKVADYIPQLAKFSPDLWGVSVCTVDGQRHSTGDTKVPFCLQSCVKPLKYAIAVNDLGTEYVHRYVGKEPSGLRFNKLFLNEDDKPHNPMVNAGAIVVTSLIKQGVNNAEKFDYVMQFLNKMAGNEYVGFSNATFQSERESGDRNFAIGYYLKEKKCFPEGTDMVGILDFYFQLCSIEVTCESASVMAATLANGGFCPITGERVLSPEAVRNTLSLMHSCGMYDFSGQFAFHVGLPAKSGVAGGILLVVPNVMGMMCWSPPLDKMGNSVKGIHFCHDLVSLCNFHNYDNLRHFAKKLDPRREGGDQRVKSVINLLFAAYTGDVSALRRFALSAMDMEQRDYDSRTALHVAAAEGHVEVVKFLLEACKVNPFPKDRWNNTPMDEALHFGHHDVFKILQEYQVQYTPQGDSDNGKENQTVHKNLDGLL

Row | SMILES | Potency
1 | O=C(NCc1ccc(Cl)cc1)c1cc([N+](=O)[O-])ccc1Cl | inconclusive [inhibitor, single point]
2 | O=C(CSC1=Nc2ccccc2C2=NC(CC(=O)NCc3ccco3)C(=O)N12)NCC1CCCO1 (configuration not stated) | inconclusive [inhibitor, partial curve]
3 | Cc1ccn2c(NC3CCCC3)c(-c3cccs3)nc2c1 | inconclusive [inhibitor, partial curve]
4 | Cc1cc(-c2ccccc2)nc(Nc2nc3c(C)cccc3c(=O)[nH]2)n1 | inconclusive [inhibitor, partial curve]
5 | Cn1c(NCCCO)nc2c1c(=O)n(Cc1ccccc1F)c(=O)n2C | inconclusive [inhibitor, single point]
6 | O=C(CNC(=O)c1ccccc1F)NCCOc1ccccc1Cl | inactive
7 | CC1=C(C(=O)Nc2ccccc2)C(c2ccc[nH]2)n2ncnc2N1 (configuration not stated) | inconclusive [inhibitor, partial curve, poor fit]
8 | Cc1ccc(C(=O)OCC(=O)NNC(=O)c2cccs2)c(O)c1 | inactive
9 | O=C(O)c1ccc(-n2cccc2/C=C2/SC(=O)N(CC(=O)N3CCCC3)C2=O)cc1 | active: 15.8 µM
10 | Cc1cc(C)nc(N/N=C/c2ccc(N3CCOCC3)cc2)n1 | inconclusive [inhibitor, partial curve, poor fit]
11 | CN(C)c1ccc(CN(C(=O)c2ccccc2Br)C2CCS(=O)(=O)C2)cc1 (configuration not stated) | inconclusive [inhibitor, single point]
12 | O=C(NC(=S)NCCC1=CCCCC1)c1ccccc1Br | inactive
13 | CS(=O)(=O)Nc1ccc([N+](=O)[O-])cc1Oc1ccccc1 | inactive
14 | CC(=O)Nc1ccc(S(=O)(=O)NNC2=NS(=O)(=O)c3ccccc32)cc1 | inactive
15 | Cc1ccc(NC(=O)c2cc(S(=O)(=O)N3CCCC3)cn2C)cc1C | inactive
16 | FC(F)Oc1ccc(NC(=S)N2CCc3ccccc32)cc1 | inconclusive [inhibitor, single point]
17 | O=CC(O)C1OC(=O)C(O)C1O (configuration not stated) | active: 11.2 µM
18 | Nc1nc(N2CCN(C(=O)c3ccco3)CC2)nc2ccc(Br)cc12 | inactive
19 | CCOc1cc(C(=O)NCC(C)CN(C)C)cc(OCC)c1OCC (configuration not stated) | inconclusive [inhibitor, single point]
20 | CC(=O)c1sc(NC(=O)c2ccc(Br)o2)nc1C | inactive
21 | CC1CCc2c(sc(NC(=O)c3cccs3)c2C(=O)O)C1 (configuration not stated) | inconclusive [inhibitor, single point]
22 | CCCCNC(=O)CN1C(=O)c2c(c3ccccc3n2C)C1c1ccc(OC)cc1 (configuration not stated) | inactive
23 | COc1cc(/C=N/n2c(-c3ccccc3)n[nH]c2=S)cc(OC)c1O | active: 4.47 µM
24 | CCCn1c(SCC(=O)c2ccc3c(c2)OCCO3)nnc1C(C)C | inconclusive [inhibitor, single point]

Row | SMILES | Potency
25 | CCOC(=O)c1ccc2c(c1)N(Cc1ccc(F)cc1Cl)C(=O)c1ccccc1S2 | inactive
26 | Cc1cccc(C)c1OCc1cc(C(=O)NCC2CC2)no1 | inactive
27 | NNC(=O)c1sc(-c2ccccc2)cc1N | inconclusive [inhibitor, partial curve, poor fit]
28 | C/C=C1\COC(C(=O)NCCN2CCCC2)(C(F)(F)F)C=C1C=C1CCCCC1 (configuration not stated) | inactive
29 | O=C(O)c1cc(=O)c2c3nc4ccccc4oc-3cc(=O)c2[nH]1 | active: 28.2 µM
30 | COCCSc1nc2c(c(=O)[nH]c(=O)n2C)n1CCCc1ccccc1 | inactive
31 | CCNc1nc2c(c(=O)n(C)c(=O)n2C)n1CCCc1ccccc1 | inconclusive [inhibitor, single point]
32 | C=CCNC(=S)NNC(=O)C(CC(C)C)CC(C)O (configuration not stated) | inconclusive [inhibitor, single point]
33 | CCCCC#Cc1ccc(C(=O)NNC(=O)Nc2ccccc2)o1 | inconclusive [inhibitor, single point]
34 | CSC(SC)=C(C#N)C(=O)c1ccccc1 | inconclusive [inhibitor, single point]
35 | CC(=O)c1cccc(Nc2nc(-c3sc(N)nc3C)cs2)c1 | inconclusive [inhibitor, single point]
36 | COCCCNC(=O)/C(C#N)=C/c1c(N2CCN(c3ccc(OC)cc3)CC2)nc2c(C)cccn2c1=O | inconclusive [inhibitor, single point]
37 | COc1ccc(C2c3c(ncn(CCCO)c3=N)Oc3ccc4ccccc4c32)cc1OC (configuration not stated) | inconclusive [inhibitor, single point]
38 | COc1ccccc1-n1c(SC)nc2c(sc(=S)n2-c2ccccc2)c1=O | inactive
39 | Cc1cccc(N2CCN(C(=O)CSc3nc4ccccc4nc3N3CC(C)OC(C)C3)CC2)c1C (configuration not stated) | inconclusive [inhibitor, partial curve]
40 | Cc1ccc(N2CC(C(=O)Nc3cc(C)ccc3F)CC2=O)cc1 (configuration not stated) | inconclusive [inhibitor, single point]
41 | COc1cc(C#Cc2c(-c3cncn3C)n(C)c3ccc(-c4ccc(OC)nc4)cc23)cc(OC)c1 | inactive
42 | CC1CN(CCOc2ccc([N+](=O)[O-])cc2)CC(C)O1 (configuration not stated) | inactive
43 | Cc1nnc(N/N=C\c2ccc(-c3cccc(C(=O)O)c3)o2)n1N | inactive
44 | CCN(C(=O)c1cn(C)c(=O)c2cc(OC)c(OC)cc12)c1cc(C)ccc1C | inactive
45 | C[C@H]1CN([C@@H](C)CO)C(=O)c2cccc(NC(=O)c3ccncc3)c2O[C@H]1CN(C)C(=O)Nc1ccccc1 | inconclusive [inhibitor, single point]
46 | Cc1c(NS(=O)(=O)c2cc(C(=O)NCCN(C)C)ccc2Cl)c(=O)n(-c2ccccc2)n1C | inconclusive [inhibitor, single point]
47 | CCOc1cc(/C=C(/C#N)c2nc3ccccc3[nH]2)ccc1OCc1ccc(C(=O)O)o1 | inconclusive [inhibitor, single point]
